Measured values reported in ChEMBL document CHEMBL1821711, “Design and synthesis of novel arylpiperazine derivatives containing the imidazole core targeting 5-HT(2A) receptor and 5-HT transporter” (J Med Chem, 2011).

Tests used:
[1] = molecular target: Sodium-dependent serotonin transporter (Homo sapiens, UniProt P31645); assay: biochemical; type: cell-based, HEK293
[2] = molecular target: T1, 5-hydroxytryptamine receptor 2C (Homo sapiens, UniProt P28335); assay: biochemical; type: cell-based, CHO-K1
T1 sequence (P28335 whole entry): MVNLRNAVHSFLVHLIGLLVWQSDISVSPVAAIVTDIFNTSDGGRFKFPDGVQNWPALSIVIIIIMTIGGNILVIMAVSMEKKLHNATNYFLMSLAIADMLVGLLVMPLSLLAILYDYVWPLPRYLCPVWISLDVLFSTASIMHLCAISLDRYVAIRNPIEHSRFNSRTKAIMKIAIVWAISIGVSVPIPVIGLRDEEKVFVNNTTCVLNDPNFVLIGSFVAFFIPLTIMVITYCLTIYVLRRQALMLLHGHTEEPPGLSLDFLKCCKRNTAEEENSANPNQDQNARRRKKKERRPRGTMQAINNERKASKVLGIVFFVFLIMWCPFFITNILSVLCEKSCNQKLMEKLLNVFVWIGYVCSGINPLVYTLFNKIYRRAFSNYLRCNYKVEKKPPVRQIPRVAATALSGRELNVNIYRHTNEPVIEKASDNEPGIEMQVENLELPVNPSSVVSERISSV

[3] = in vivo; details: Sprague-Dawley, rat, iv, 1 mg/kg
[4] = in vivo; details: Sprague-Dawley, rat, po, 5 mg/kg
[5] = in vivo; details: Sprague-Dawley, rat, po, 5 mg/kg; remark: listed apart in the source
[6] = in vivo; details: Sprague-Dawley, rat, iv, 1 mg/kg; remark: listed apart in the source
[7] = in vivo; details: Sprague-Dawley, rat, po, 5 mg/kg; remark: listed apart in the source
[8] = in vivo; details: Sprague-Dawley, rat, iv, 1 mg/kg; remark: listed apart in the source
[9] = in vivo; details: Sprague-Dawley, rat, po, 5 mg/kg; remark: listed apart in the source
[10] = in vivo; details: Sprague-Dawley, rat, po, 5 mg/kg; remark: listed apart in the source

Chain of Sodium-dependent serotonin transporter (P31645 whole entry): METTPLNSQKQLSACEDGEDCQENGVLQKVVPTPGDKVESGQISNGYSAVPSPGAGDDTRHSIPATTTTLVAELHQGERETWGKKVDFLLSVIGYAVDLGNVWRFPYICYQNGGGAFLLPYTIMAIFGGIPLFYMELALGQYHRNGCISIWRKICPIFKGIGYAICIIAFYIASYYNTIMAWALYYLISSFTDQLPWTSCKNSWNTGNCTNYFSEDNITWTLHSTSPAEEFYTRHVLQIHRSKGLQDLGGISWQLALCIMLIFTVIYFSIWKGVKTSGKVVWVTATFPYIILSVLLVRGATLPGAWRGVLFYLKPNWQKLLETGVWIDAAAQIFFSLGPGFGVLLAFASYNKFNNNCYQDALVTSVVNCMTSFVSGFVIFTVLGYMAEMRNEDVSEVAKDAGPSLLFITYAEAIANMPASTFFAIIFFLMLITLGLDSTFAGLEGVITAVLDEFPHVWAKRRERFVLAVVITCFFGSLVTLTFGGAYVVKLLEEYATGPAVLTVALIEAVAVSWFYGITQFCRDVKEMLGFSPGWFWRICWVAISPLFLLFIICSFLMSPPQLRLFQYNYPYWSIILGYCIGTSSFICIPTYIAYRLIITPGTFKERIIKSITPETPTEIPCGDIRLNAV

Structure (SMILES)	IC50 [1] [nM]	IC50 [2] [nM]	also measured
COc1ccc(-n2c(C)nc(C(=O)NCCCN3CCN(c4cccc(Cl)c4Cl)CC3)c2C)cc1	33		
Cc1cccc(N2CCN(CC(O)CNC(=O)c3nc(C)n(-c4ccccc4Cl)c3C)CC2)c1C (centres undefined)		311	
COc1ccc(-n2c(C)nc(C(=O)NCC(O)CN3CCN(c4cccc(C)c4C)CC3)c2C)cc1OC (centres undefined)	70.3	1180	
Cc1nc(C(=O)NCCCN2CCN(c3cccc(Cl)c3Cl)CC2)c(C)n1-c1ccc2c(c1)OCCO2.Cl.Cl.Cl.Cl			Cmax [3]: 245 ng/mL; Cmax [4]: 208 ng/mL; Tmax [5]: 15 min; half-life [6]: 26.3 min; half-life [7]: 22.3 min; AUC(0-inf) [8]: 182 ng·h/mL; AUC(0-inf) [9]: 180 ng·h/mL; bioavailability [10]: 14.9%
CCCc1nc(C(=O)NCC(O)CN2CCN(c3cccc(Cl)c3C)CC2)cn1-c1ccc(Cl)cc1 (centres undefined)	80	953	
Cc1c(Cl)cccc1N1CCN(CCCNC(=O)c2nc(C)n(-c3ccccc3Cl)c2C)CC1		39	
Cc1cccc(N2CCN(CC(O)CNC(=O)c3nc(C)n(-c4cccc(Cl)c4)c3C)CC2)c1C (centres undefined)		535	
Cc1cccc(N2CCN(CC(O)CNC(=O)c3nc(C)n(-c4ccc(F)cc4)c3C)CC2)c1C (centres undefined)		654	
Cc1c(Cl)cccc1N1CCN(CC(O)CNC(=O)c2nc(C)n(-c3ccccc3F)c2C)CC1 (centres undefined)	36	774	
Cc1c(Cl)cccc1N1CCN(CC(O)CNC(=O)c2nc(C)n(-c3ccc(F)cc3)c2C)CC1 (centres undefined)	20	1450	
CCCc1nc(C(=O)NCC(O)CN2CCN(c3cccc(Cl)c3Cl)CC2)cn1-c1ccc(Cl)cc1 (centres undefined)		856	
Cc1cccc(N2CCN(CCCNC(=O)c3nc(C)n(-c4ccccc4F)c3C)CC2)c1C		124	
CCCc1nc(C(=O)NCC(O)CN2CCN(c3cccc(Cl)c3C)CC2)c(C)n1-c1ccccc1 (centres undefined)		398	
COc1ccccc1-n1c(C)nc(C(=O)NCCCN2CCN(c3cccc(Cl)c3C)CC2)c1C.Cl.Cl.Cl			Cmax [3]: 408 ng/mL; Cmax [4]: 65 ng/mL; Tmax [5]: 15 min; half-life [6]: 13.6 min; half-life [7]: 7.26 min; AUC(0-inf) [8]: 127 ng·h/mL; AUC(0-inf) [9]: 21.9 ng·h/mL; bioavailability [10]: 3.45%
CCCc1nc(C(=O)NCCCN2CCN(c3cccc(C)c3C)CC2)c(C)n1-c1ccc(OC)cc1	13		
CCCc1nc(C(=O)NCC(O)CN2CCN(c3cccc(Cl)c3C)CC2)c(C)n1-c1ccc(OC)cc1 (centres undefined)		1360	
Cc1cccc(N2CCN(CCCNC(=O)c3nc(C)n(-c4cccc(Cl)c4)c3C)CC2)c1C		111	
Cc1cccc(N2CCN(CCCNC(=O)c3nc(C)n(-c4ccc(F)cc4)c3C)CC2)c1C		324	
COc1ccccc1-n1c(C)nc(C(=O)NCC(O)CN2CCN(c3cccc(Cl)c3C)CC2)c1C (centres undefined)	19	476	
Cc1cccc(N2CCN(CCCNC(=O)c3nc(C)n(-c4ccccc4)c3C)CC2)c1C		170	
